The data set deals with the molecule itself. In words: AUC; OD 0.8, Tris–HCl pH 7.5, 300 mM NaCl; absorbance at 280 nm, 16°C, 58 000 rpm, 8 h.

In general, stoichiometry N refers to a count of units in the complex or per binding partner.

B1: RNF168 ([…]) (domain or fragment)
chain: not shown
notes: pET28a; a thrombin site follows the His tag
Regarding B1, the “stoichiometry N” value was 2.
